# Laboratory results: the supplement of paper PMC4967469
# A lower IC50 marks a more sensitive line; a limit (>, <) means that the fit lies beyond the doses tested. For AUC the same curve is integrated over the 256-fold range of doses and scaled to a fraction; the more sensitive the line, the further below 1. For part of these data: A top dose marked as inferred comes from the curve model; the source does not state it. For part of these data: Drugs with an entry number were screened twice under separate entries, and the two screens often disagree.
# Tests used:
# Assay in all cases: Viability of human cancer cell lines after 72 h of drug (GDSC screen)
# [1] = compound: CC1(C)CNc2cc(NC(=O)c3cccnc3NCc3ccncc3)ccc21 [AMG-706]; conditions: top dose 2 µM; top dose inferred
# Protocol: (§1)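 Human cancer cell lines in 384-well plates, medium with 10% serum, drug for 72 h over a 256-fold dose range (nine 2-fold or five 4-fold steps up to the top dose). Adherent lines were fixed and stained with the nucleic acid dye Syto60, suspension lines read with resazurin; signal relative to control wells, capped at 0 and 100%. One two-parameter sigmoid per drug and line, fitted in a mixed model over all curves with the slope shared within a line.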
# [2] = compound: Cc1sc2c(c1C)C(c1ccc(Cl)cc1)=N[C@@H](CC(=O)OC(C)(C)C)c1nnc(C)n1-2 [JQ1]
# Protocol: as §1
# [3] = compound: COC(=O)[C@H](CCSC)NC(=O)c1ccc(NC[C@@H](N)CS)cc1-c1ccccc1 [FTI-277]; conditions: top dose 1.024 µM; top dose inferred
# Protocol: as §1
# [4] = compound: O=C(/C=C/c1cccc(S(=O)(=O)Nc2ccccc2)c1)NO [Belinostat]; conditions: top dose 20 µM; top dose inferred
# Protocol: as §1
# [5] = compound: CCOc1nc(NC(=O)Cc2cc(OC)ccc2OC)cc(N)c1C#N [JNK Inhibitor VIII]; conditions: top dose 10 µM; top dose inferred
# Protocol: as §1
# [6] = compound: C[C@]1(O)C[C@@H](c2nc(-c3ccc4ccc(-c5ccccc5)nc4c3)c3c(N)nccn32)C1 [OSI-906]; conditions: top dose 2.56 µM; top dose inferred
# Protocol: as §1
# [7] = compound: CN1CCN(c2ccc([N+](=O)[O-])c3no[n+]([O-])c23)CC1 [NSC-207895]; conditions: top dose 20 µM; top dose inferred
# Protocol: as §1
# [8] = compound: Cc1ccc(C(=O)N(CCCN)[C@@H](c2nc3cc(Cl)ccc3c(=O)n2Cc2ccccc2)C(C)C)cc1 [SB-715992]; conditions: top dose 0.128 µM; top dose inferred
# Protocol: as §1
# [9] = compound: COCC[n+]1c2c(n(Cc3cnccn3)c1C)C(=O)c1ccccc1C2=O [YM155]; conditions: top dose 5.12 µM
# Protocol: as §1
# [10] = compound: c1ccc2c(CCNc3ccc(Nc4ccncc4)cc3)c[nH]c2c1 [JNJ-26854165]; conditions: top dose 10 µM
# Protocol: as §1
# [11] = top dose 1 µM, screen: GDSC drug entry 1218, top dose inferred
# [12] = top dose 2.56 µM, screen: GDSC drug entry 163
Cell Line,AUC [1],IC50 [1],"AUC [2, 11]","IC50 [2, 11]","AUC [2, 12]","IC50 [2, 12]",AUC [3],IC50 [3],AUC [4],IC50 [4],AUC [5],IC50 [5],AUC [6],IC50 [6],AUC [7],IC50 [7],AUC [8],IC50 [8],AUC [9],IC50 [9],AUC [10],IC50 [10]
"MES-SA (uterus, adherent)",0.992,> 2 µM,0.991,> 1 µM,0.711,0.565 µM,0.99,> 1.02 µM,0.992,> 20 µM,0.991,> 10 µM,0.992,> 2.56 µM,0.987,> 20 µM,0.976,> 0.128 µM,0.885,4.16 µM,0.939,> 10 µM
"MFE-319 (endometrium, adherent)",0.913,> 2 µM,0.988,> 1 µM,0.656,0.428 µM,0.973,> 1.02 µM,0.924,> 20 µM,0.952,> 10 µM,0.989,> 2.56 µM,0.989,> 20 µM,0.638,0.019 µM,0.967,> 5.12 µM,0.961,> 10 µM
"MHH-ES-1 (Ewing sarcoma, adherent)",0.904,> 2 µM,0.984,> 1 µM,0.726,0.697 µM,0.925,> 1.02 µM,0.296,0.335 µM,0.909,> 10 µM,0.847,1.85 µM,0.985,> 20 µM,0.495,0.00773 µM,0.026,< 0.02 µM,0.852,7.55 µM
"MIA-PaCa-2 (pancreas, adherent)",0.895,> 2 µM,,,0.711,0.674 µM,0.973,> 1.02 µM,0.606,2.52 µM,0.91,> 10 µM,0.834,1.91 µM,0.983,> 20 µM,0.944,> 0.128 µM,0.312,0.09 µM,0.89,> 10 µM
"MKN1 (stomach, adherent)",0.96,> 2 µM,0.98,> 1 µM,0.71,0.65 µM,0.982,> 1.02 µM,0.533,1.55 µM,0.974,> 10 µM,0.984,> 2.56 µM,0.822,12.5 µM,0.925,> 0.128 µM,0.033,< 0.02 µM,0.949,> 10 µM
"MKN28 (stomach, adherent)",0.953,> 2 µM,,,0.801,1.28 µM,0.862,0.914 µM,0.649,3.27 µM,0.976,> 10 µM,0.947,> 2.56 µM,0.826,12.4 µM,0.929,> 0.128 µM,0.125,< 0.02 µM,0.868,9.52 µM
"NCI-H358 (lung adenocarcinoma, adherent)",0.897,> 2 µM,0.963,> 1 µM,0.836,1.98 µM,0.943,> 1.02 µM,0.325,0.381 µM,0.918,> 10 µM,0.694,0.6 µM,0.913,> 20 µM,0.649,0.0218 µM,0.031,< 0.02 µM,0.924,> 10 µM
"NCI-H520 (lung squamous cell carcinoma, adherent)",0.962,> 2 µM,0.983,> 1 µM,0.832,1.72 µM,0.987,> 1.02 µM,0.415,0.726 µM,0.981,> 10 µM,0.985,> 2.56 µM,0.985,> 20 µM,0.545,0.0107 µM,0.09,< 0.02 µM,0.957,> 10 µM
"NCI-H647 (non-small cell lung carcinoma, adherent)",0.978,> 2 µM,,,0.857,2.24 µM,0.975,> 1.02 µM,0.482,1.12 µM,0.98,> 10 µM,0.944,> 2.56 µM,0.926,> 20 µM,0.669,0.0243 µM,0.039,< 0.02 µM,0.837,7.18 µM
"NCI-H650 (lung adenocarcinoma, adherent)",0.973,> 2 µM,0.982,> 1 µM,0.89,> 2.56 µM,0.984,> 1.02 µM,0.497,1.23 µM,0.986,> 10 µM,0.949,> 2.56 µM,0.94,> 20 µM,0.851,0.114 µM,0.046,< 0.02 µM,0.977,> 10 µM
"NCI-H727 (lung carcinoid, adherent)",0.922,> 2 µM,0.945,> 1 µM,0.63,0.463 µM,0.973,> 1.02 µM,0.7,6.72 µM,0.969,> 10 µM,0.551,0.24 µM,0.966,> 20 µM,0.955,> 0.128 µM,0.498,0.315 µM,0.905,> 10 µM
"NCI-H1437 (lung adenocarcinoma, adherent)",0.97,> 2 µM,0.985,> 1 µM,0.585,0.276 µM,0.897,> 1.02 µM,0.567,1.92 µM,0.974,> 10 µM,0.908,> 2.56 µM,0.955,> 20 µM,0.738,0.0397 µM,0.055,< 0.02 µM,0.863,9.2 µM
"NCI-H1651 (lung adenocarcinoma, adherent)",0.969,> 2 µM,0.983,> 1 µM,0.868,> 2.56 µM,0.977,> 1.02 µM,0.508,1.32 µM,0.98,> 10 µM,0.886,> 2.56 µM,0.975,> 20 µM,0.984,> 0.128 µM,0.042,< 0.02 µM,0.768,4.02 µM
"NCI-H1703 (lung adenocarcinoma, adherent)",0.535,0.16 µM,0.979,> 1 µM,0.903,> 2.56 µM,0.959,> 1.02 µM,0.816,14.3 µM,0.934,> 10 µM,0.968,> 2.56 µM,0.919,> 20 µM,0.664,0.0254 µM,0.155,0.0206 µM,0.869,> 10 µM
"NCI-H1792 (lung adenocarcinoma, adherent)",0.984,> 2 µM,0.987,> 1 µM,0.938,> 2.56 µM,0.978,> 1.02 µM,0.668,3.49 µM,0.99,> 10 µM,0.955,> 2.56 µM,0.99,> 20 µM,0.955,> 0.128 µM,0.371,0.147 µM,0.917,> 10 µM
"NCI-H1944 (lung adenocarcinoma, adherent)",0.943,> 2 µM,0.983,> 1 µM,0.647,0.422 µM,0.948,> 1.02 µM,0.357,0.488 µM,0.946,> 10 µM,0.862,2.44 µM,0.852,17.1 µM,0.653,0.0219 µM,0.084,< 0.02 µM,0.862,9.51 µM
"NCI-H2023 (lung adenocarcinoma, adherent)",0.966,> 2 µM,0.98,> 1 µM,0.75,1.02 µM,0.983,> 1.02 µM,0.699,5.25 µM,0.911,> 10 µM,0.941,> 2.56 µM,0.982,> 20 µM,0.98,> 0.128 µM,0.21,0.0349 µM,0.839,9.43 µM
"NCI-H2030 (lung adenocarcinoma, adherent)",0.946,> 2 µM,0.937,> 1 µM,0.73,0.802 µM,0.966,> 1.02 µM,0.526,1.49 µM,0.9,> 10 µM,0.908,> 2.56 µM,0.93,> 20 µM,0.763,0.0525 µM,0.061,< 0.02 µM,0.931,> 10 µM
"NCI-H2085 (lung adenocarcinoma, adherent)",0.979,> 2 µM,0.928,> 1 µM,0.777,1.12 µM,0.983,> 1.02 µM,0.647,3.31 µM,0.983,> 10 µM,0.952,> 2.56 µM,0.892,> 20 µM,0.855,0.116 µM,0.066,< 0.02 µM,0.963,> 10 µM
"NCI-H2087 (lung adenocarcinoma, semi-adherent)",0.972,> 2 µM,0.984,> 1 µM,0.641,0.405 µM,0.977,> 1.02 µM,0.481,1.11 µM,0.979,> 10 µM,0.955,> 2.56 µM,0.953,> 20 µM,0.707,0.0324 µM,0.031,< 0.02 µM,0.818,6.19 µM
"NUGC-3 (stomach, adherent)",0.955,> 2 µM,0.928,> 1 µM,0.874,> 2.56 µM,0.954,> 1.02 µM,0.596,2.36 µM,0.962,> 10 µM,0.984,> 2.56 µM,0.906,> 20 µM,0.956,> 0.128 µM,0.033,< 0.02 µM,0.788,4.97 µM
"OAW-28 (ovary, adherent)",0.867,> 2 µM,0.97,> 1 µM,0.871,> 2.56 µM,0.982,> 1.02 µM,0.266,0.221 µM,0.942,> 10 µM,0.976,> 2.56 µM,0.983,> 20 µM,0.757,0.0551 µM,0.169,0.0227 µM,0.911,> 10 µM
"OE19 (oesophagus, adherent)",0.959,> 2 µM,0.969,> 1 µM,0.798,1.41 µM,0.96,> 1.02 µM,0.849,18.1 µM,0.982,> 10 µM,0.956,> 2.56 µM,0.984,> 20 µM,0.986,> 0.128 µM,0.575,0.526 µM,0.964,> 10 µM
"OSC-19 (head and neck, adherent)",0.979,> 2 µM,0.944,> 1 µM,0.685,0.539 µM,0.979,> 1.02 µM,0.329,0.41 µM,0.972,> 10 µM,0.973,> 2.56 µM,0.985,> 20 µM,0.793,0.0612 µM,0.042,< 0.02 µM,0.971,> 10 µM
